Some of the results follow.
test system: PfHDP1 homeodomain (GST-tagged); experiment: gcPBM binding intensity (ln(normalized median fluorescence intensity)); higher = stronger DNA binding
Procedure, shortened: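 Binding of GST-tagged P. falciparum DNA-binding domains, expressed in E. coli and used at about 25 μg on average, was carried out for 1 h in 1× PBS containing 1% milk, 0.2 mg/ml BSA, 0.5% salmon testes DNA and 0.03% Triton X-100. The target was an Agilent 4 × 180k array of primer-extended double-stranded 36-bp intergenic genomic probes plus negative controls, read with Alexa488 anti-GST antibody at 488 nm. Binding intensity is the highest Masliner-normalised natural-log median intensity across replicate spots of either probe orientation.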

Sequence	gcPBM binding intensity (ln)
TGTTAATTTCATTTTCTACACACCTATCCTTTTTTT [CACACA_site8157]	6.61
GAACAAAAATACTTATGTACACATTAGCAAGGAAAA [XGTACX_site5622]	6.54
ATTATGTTATTATTTTGTACACATAAATAATACGTT [XGTACX_site816]	6.61
TGTTTCTTATTTTTTTCACACACTAATCATTTCAAA [CACACA_site8695]	7.02
TCATATGTGAAACACACACACACACCCAAAAAAACA [CACACA_site3247]	6.88
ATGTAGACTGAAACCACACACACATATATATATATA [CACACA_site606]	9.33
GGATTACAAATAGGTTGTACGTTTTTTTTTTTTTCT [XGTACX_site3605]	6.13
TTACATTGTAAAAAGTGTACATATAATTTAATTAAT [XGTACX_site1834]	6.49
TCCGTATATTTATACGCATGCATTATGAACATTGTT [TGCATGCA_site613]	6.5
AAATTTTTTTTTGTCATATGATGTTTGAACCCAAAT [CACACA_negctrl_site1659]	6.57
AAAAAAAATAATTTGCGTACATAAAAATTTATAGGA [XGTACX_site3016]	6.46
CATACATACATATATACACACATATATAATAATATA [CACACA_site2678]	6.9
TACGAATTAAAAAAGAGTACAAATAAAATATCTACA [XGTACX_site7412]	5.9
TTTTAAACACCAATCAAAAAAATATAAATATAAATA [TGCATGCA_negctrl_site552]	6.36
AATTAGCTCAAAGGTTGTACAAATATATTTTAATGG [XGTACX_site2352]	6.74
TCCACATTAATGTAATGTACAAAATTAGAAAATAAA [XGTACX_site6287]	6.54
AATATAAATACTCCTACACACATATAAATATAAATA [CACACA_site7419]	6.79
TTTTGATTAAGTGAATTTTTTTATTTATATAAATAT [TGCATGCA_negctrl_site479]	6.25
AAAAATTAAATGTACACACACCTTAAACAATGTCAT [CACACA_site6958]	6.25
AAATACTGATTTGGTTGTACATGTGCACTATATAAC [XGTACX_site3795]	9.12
ATAAATATATTTATATGTACATATAATTTTACATAT [XGTACX_site5440]	6.73
TATAATCTAACATAATGTACATGTATATGCACTTTA [XGTACX_site369]	8.43

Sequence	gcPBM binding intensity (ln)
ATATATATATCTAATTGTACATATTTTATAAATAAG [XGTACX_site4840]	8.15
AAAAAAAAAAAAAAATGTACCCATAAAATAAGCATT [XGTACX_site8576]	6.42
TATATTATATATATATGTACATATGGCAAAACATTA [XGTACX_site7958]	7.12
AATCACAACGAACACACACACAAAAAAAAAAAAAAA [CACACA_site6790]	6.42
TTTTTTACAATTAACACACTCAAAAATAATATTAAA [CACACA_site5198]	6.45
AATTTTTTAAATGTGTGTACATATTATTTAAATAAT [XGTACX_site5967]	6.5
CAAAATTTTTATAAGTCACACATTATCTAAGCTTAT [CACACA_site5747]	6.08
GTATATAATTTTTTATGTACTAAATTATATGTTTTT [XGTACX_site4907]	6.11
ATCTATTTGTAAAGGGTGCGCATATCAATAAAAAAT [GTGCAC_site9503]	7.32
AATAAATAAATAAATTAATAAATTAATAAATTAATA [GTGCAC_negctrl_site37]	5.81
CACACAAAGGAATATACACACATATTTATATTTATA [CACACA_site7841]	6.54
ATAAAAAAAAAAAAAAAATATATATATATATATATA [XGTACX_negctrl_site424]	9.42
TTTTAGGTCTGAATGTGTACTAAATAATATAAGTAT [XGTACX_site6554]	6.42
TGTAATAACGTTATAAAAAGTATAAAAAAAAAAAAA [CACACA_negctrl_site943]	6.2
TTATTTTTATTATTTTGTATATATATTTATAGAAAA [XGTACX_negctrl_site465]	6.45
TATATACTTTTTAATCACACTTCTTTAAAAAAAGTA [CACACA_negctrl_site1380]	6.45
TACCTAATATGTTATACACACATTAGAAGTACATAT [CACACA_site5375]	6.65
ATTATCTTATGTTATTTATTTGTCCCACATTTGTTA [TGCATGCA_negctrl_site402]	6.89
CATACACCCAGACACACACACATATATATATATATA [CACACA_site634]	9.29
TTTTTGTTATTATGTGTGCACATATATATATATATA	10.4
AACAAATATCCCAAAAGTACACATATAAAAAAAAAA [XGTACX_site4126]	6.77
TATGTTATTATTTGTACACACACATATATATCCTTG [CACACA_site5910]	6.99

Sequence	gcPBM binding intensity (ln)
TTTATGTGTATGTTTACACACATAAAAAAATATATG [CACACA_site3039]	6.54
TATACCTTTGCGTGTGCATGCGCTTATATATATTTT [TGCATGCA_site152]	9.59
TATTTTTAATATTTTGCATGCAGTATTTTATAAAAT [TGCATGCA_site250]	7.07
ACAATTCCCGTATGATGTACTTTTTTCCACTTTTTC [XGTACX_site1811]	6.56
TACTAACATAAAGACACACACCACATAAAATAAATA [CACACA_site7663]	6.82
CTTATTTTGTTATAAGTGCATTTTTTAAAATTTCTT	8.33
TATGAACACAGACACACACACAAAAAAAAAAAAAAA [CACACA_site7037]	6.49
GGAAGAAAACTTAGGTGTACATATAAAACGATATAA [XGTACX_site3118]	6.72
ATAGTATACAGACACACACACACACCGATATATATA [CACACA_site8511]	6.92
TAACTAAGGAATAATACACACAGAAATATATATTTA [CACACA_site344]	6.78
ACATTATGCCATAAATGTACACATACATATACACAG [XGTACX_site1330]	6.66
GATGATGTTACTTAAGTGCATATAAATTATATTTTA [GTGCAC_site9940]	8.68
TAAAGTTTTTTTTTAACACACACATAATAAAATAAA [CACACA_site8042]	6.71
AAATATATTATAAATTGTACGTTTATATATATTATT [XGTACX_site5110]	6.21
GACACATATAAATATTAACACACATAATGAATTATA [CACACA_site8881]	6.57
TTTATTTATATAATTACACACATATATACGCAAATG [CACACA_site2794]	7.05
AAAGTATAGATGTATACACACACCAAACGTTAAAAA [CACACA_site3081]	6.93
TTTTATTCATTAATTTGTACTTATCCTTTTGCTTAA [XGTACX_site1243]	6.3
TCATTAATTAAATCTTGTACATATTCATATATATAT [XGTACX_site2241]	8.17
GTGTTCTTGTTATACACACACATATTTATATTTATA [CACACA_site6615]	7.11
TAGTATCAATCTTATACATGCATAAAATAATTATAA [TGCATGCA_site1052]	6.53
AAAAAAAAAAAAAAAACACACACAAATTTAATATAT [CACACA_site8492]	6.58

Sequence	gcPBM binding intensity (ln)
AAAATTAAAGTAAGGACACACATATATAATACATAT [CACACA_site823]	6.85
TACACCAAAAAAAAACGTACAAAATCCCACCCAGAC [XGTACX_site4622]	7.17
TATATATATAACAACACACACAGATCATAAAACTGC [CACACA_site2161]	7.35
AAAAAAAAAAAAAACACACACAAATTTAATATATAT [CACACA_site1695]	6.64
TCCCAAGGAGTAGGCACACATAAAATATTATACATA [CACACA_site717]	6.42
TATATTTATTTTAACACACACATATATATATTATAT [CACACA_site4729]	6.69
TTATGTATTCATAACACATGCAAATAGGATCATATA [TGCATGCA_site731]	6.74
CGTTAGAGGGCTTTATCACACATGAAAAAAAAAAAA [CACACA_site5155]	6.2
ATATGATTTCACAAGACACACACATACAAATTTATA [CACACA_site9296]	6.87
CACACGCACAGACACACACACACATATAAATATGTA [CACACA_site6300]	7.87
TACAACATATTCAAATGTACAAATATAGGAATGAAA [XGTACX_site2730]	6.82
AGCGTATTATACTGACGTACATTTTATGTAACTCCA [XGTACX_site2715]	5.95
AACATAAAATGGATATGTACATAAAAATATATACTC [XGTACX_site7775]	6.34
TTATATTTCTTGAAGGGTACATACCATTATTTTTAA [XGTACX_site1159]	6.2
AGAAAACTCGCTTTTCTAAATCTCAAAAAAAAAAAA [XGTACX_negctrl_site94]	6.07
ATACATATATTAGGATGTACGTTTATTTTAGTTATT [XGTACX_site7169]	6
ATATATTTATATATTACACACAATATTGGAGACATA [CACACA_site931]	6.85
AATTGGGAACTGTAATGTACATATATTGAAAGTATA [XGTACX_site7081]	6.95
ACAAAAAAAAATATGTTAACTATATATATATATATA [CACACA_negctrl_site346]	9.31
TATTTATTTGTACATATACACACTTAAATATGTTTA [CACACA_site3902]	6.82
TAAACAAAAAGGAAGAGTACTTGTAAAATTTGTAAA [XGTACX_site3003]	6.63
TAAAAAAATAAAATTACACACATATATAGATATATA [CACACA_site7273]	6.03
